From the RNAGym collection of RNA variant scans (doi:10.7554/elife.90254)
The source gives no read counts; variants with many changes may rest on few reads.

B1: OR4K15 (parent)
chain: GUUAACGGUCAUAGGCCAUGGAAACUAGGAGCACCAUUUCGCUGCCAGUGAAGAAAUGAACAAAGAAAAUCUGGGCCAGGCAGGCAUCAAAAGAAAUAGUCUUGCGCUCAACCAGAAAGUCUGUAAUCAUUUUAAGGGUA

Variants of: B1
Assay: self-cleavage, relative activity (ratio to wild type); higher = more cleavage; in vitro, sequencing; the parent is a self-cleaving ribozyme
Work on GUUAACGGUCACAGGCUAUGGAAGCUAGGAGCACCAUUUCGCUGCCAGUGAAGAAAUGAACAAAGAAAAUCUGGGCCAGGCAGGCAUCAAAAGAAAUAGUCUAGCGCUCAACCAGAAAGUCUGUAAUCAUUUUAAGGGUA yielded a self-cleavage of 0.33.
Work on GUUAACGGUCACAGGCCAUGGAAACUAGGAGCACCAUUCCGCUGCCAGUGAUGAAAUGAACAAAGAAGAUCUGGGCCAGGCGGGCAUCAAAAGAAAUAGUCUUGCGCUCAACCAGAAAGUCUGUAAUCAUUUUAAGGGUG yielded a self-cleavage of 0.56.
Work on GUUAACGGUCACAGGCCAUGGAAACUAGGAGCACCAUUUCGCUGCCAGUGAAGAAAUGAACAAAGAAAAUCUGGGCCAGGCAGGCAUCAAAAGAAAUAGUCUUGCGCUCGACCAGAAAGUCUGUAAUCAUCUUAUGGGUA yielded a self-cleavage of 0.13.
GUUAACGGUCACAGGCCAUGGAAACUAGGAGCACCAUUUCGCUGCCAGUGAAGAAAUGAACAAAGAAAAUCUGGGCCAGGCAGGCAUCAAAAGAAAUGGUCUUGCGCUCAACCAGAAAGUCUGUAGUCAUUUUAGGGGUA gave a self-cleavage of 0.35.
In the case of GUUAACGGUCACAGGCCAUGGAAACUAGGAGCACCAUCUCGCUGCCAGUGAAGAAAUGAGCAAAGAAAAUCUGGGCCAGGCAGGCAUCAAAAGAAAUAGUCUUGCGCUCAACCAGAAAGUCUGUAAUCAUUUUAAGGGUA, the self-cleavage is reported as 0.79.
GUUAACGGUCACAGGCCAUGGAAACUAGGAGCACCACUUCGCUGCCAGUGAAGAAAUGAACAAAGAAAAUCUGGGCCAGGCAGGCAUCAAAAGAAAUAGUCUUGCGCUCAACCAGAAGGUCUGUAAUCAUUUUAAGGGUA gave a self-cleavage of 0.75.
Variant GUUAACGGUCACAGGCCAUGGAAACUAGGAGCACCACUUCGCUGCCAGUGAAGAAAUGAACAAAGAAAGUCUGGGCCAGGCAGGCAUCAAAAGAAAUAGUCUUGCGCCCAACCAGAAAGUCUGUAAUCAUUUUAAGGGUA has a self-cleavage of 0.02.
For GUUAACGGUCACAGGCCAUGGAAAUUAGGAGCACCAUUUCGCUGCCAGUGAAGAAAUGAACAAAGAAAAUCUGGGCCAGGCAGGCAUCAAAAGAAAUAGUCUUGCGCUCAACCAGAAAGUCUGUAACCAUUUUAAGGGUA, the self-cleavage was 0.72.
With GUUAACGGUCACAGGCCAUGGAAACUAGGAGCACCAUUUCGCCGCCAGUGAAGAAAUGGACAAAGAAAAUCUGGGCCAGGCAGGCACCAAAAGAAAUAGUCUUGCGCUCAACCAGAAAGUCUGUAAUCAUUUUAAGGGUA the self-cleavage was 0.17.
GUUAACGGUCACAGGCCAAGGAAACUAGGGGCACCAUUUCGCCGCCAGCGAAGAAAUGAACAAAGAAAAUCUGGGCCAGGCAGGCAUCAAAAGAAAUAGUCUUGCGCUCAACCAGAAAGUCUGUAAUCAUUUUAAGGGUA gave a self-cleavage of 1.16.
Work on GUUAACGGUCACAGGCCACGGAAACUAGGAGCACCAUUUCGCUGCCAGUGAAGAAAUGAACAAAGAAAAUCUGGGCCAGGCAGGCAUCAAAAGGAAUAGUCUUGCGCUCAACCAGAAAGUCUGUAAUCAUUUUAAGGGUA yielded a self-cleavage of 1.37.
With GUUAACGGUCACAGGCCAUGGAAACUAGGAGCACCAUUUCGCUGCCAGUGAAGAAAUAAACAAAGAAAAUCUGGGCCAGGCAGGCAUCAAAAGAAAUAGUCUUGCGCCCAACCAGAAAGUCUGUAAUCAUUUUAAGGGUA the self-cleavage was 0.02.
Work on GUUAACGGUCACAGGCCAUGGAAACUAGGAGCACCAUUUCGCUGCCAGUGAAGAAAUGAACAAAGAAAAUCUGGGCCAGGCAGGCAUCAAAAGAAAUAGUCUUGCGCUCAACCAGAGAGUCUGUAAUCAUUUUGAGGGUA yielded a self-cleavage of 2.01.
Work on GUUAACGGUCACAGGCCAUGGAAACUAGGAGCACCAUUUCGCUGCCAGAGAAGAAAUGAACAAAGAAAAUCCGGGCCAGGCAGGCAUCAAAAGAAAUAGUCUUGCGCUCAACCAGAAAGUCUGUAAUCAUUUUAAGGGUA yielded a self-cleavage of 0.4.
Work on GUUAACGGUCACAGGCCAUGGAAACUAGGAGCACCAUUCCGCUGCCAGUGAAGAAAUGAACAAAGAAAAUCUGGGCCAGGCAGGCAUCAAAAGAAAUAGUCUUGCGCUCAACCAGAAAGCUUGUAAUCAUUUUAAGGGUA yielded a self-cleavage of 2.73.
For GUUAACGGUCACAGGCCAUGGAAACUAGGAGCACCACUUCGCUGCCAGUGAAGAAAUGAACGAAGAAAAUCUGGGCCAGGCAGGCAUCAAAAGAAAUAGUCUUGCGCUCAACCAGAAAGUCUGUAAUCAUUUUAAGGGUA, the self-cleavage was 0.74.
Work on GUUAACGGUCACAGGCCAUGGAAACCAGGAGCACCAUUUCGCUGCCAGUGAAGAAAUGAACAAAGAGAAUCUGGGCCAGGCAGGCAUCAAAAGAAAUAGUCUUGCGCUCAACCAGAAAGUCUGUAAUAAUUUUAAGGGUA yielded a self-cleavage of 0.41.
In the case of GUUAACGGUCACAGGCCAUGGAAACUAGGAGCACCACUUCGCUGCCGGUGAAGAAAUGAACAAAGAAAAUCUGGGCCAGGCAGGCAUCAAAAGAAAUAGUCUUGCGCUCAACCAGAAAGUCUGUAAUCAUUUUAAGGGUA, the self-cleavage is reported as 0.77.
In the case of GUUAACGGUCACAGGCCAUGGAAACUAGGAGCACCAUAUCGCUGCCAGUGAAGAAAUGAACAAAGAAAAUCUGGGCCAGGCAUGCACCAAAAGAAAUAGUCUUGCGCUCAACCAGAAAGUCUGUAAUCAUCUUAAGGGUA, the self-cleavage is reported as 0.46.
Variant GUUAACGGUCACAGGCCACGGAAACUAGGAGCACCAUUUCGCUGCCAGUGAAGGAAUGAACAAAGAAAAUCUGGGCCAGGCAGGCAUCAAAAGAAAUAGUCUUGCGCUCGACCAGAAAGUCUGUAAUCAUUUUAAGGGUA has a self-cleavage of 0.36.
GUUAACGGUCACAAGCCAUGGAAACUAGGAGCACCAUUUCGCUGCCAGUGAAGAAAUGAACAAAGAAAAUCUGGGCCAGGCAGGCAUCAAAAGAAAUAGUCUUGCGCUCAACCAGAAAGUCUGUAGUCAUUUUAAGGGUA gave a self-cleavage of 0.26.
